# According to the supplement of paper PMC8728848:
# The list shows a part of the results.
# How the values were obtained:
# Test in all cases: glycan array binding signal (z-score within array); higher = stronger binding
# Conditions in all cases: glycan notation: IUPAC condensed, linker removed
# [1] = molecular target: Fuc(a1-2)[GalNAc(a1-3)]Gal
# How it was run: (§1)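 Negative Z-scores can be read as non-binding. The Z-score is calculated within each array and then averaged across arrays of one protein sequence at different concentrations or buffers and across linkers. Arrays, 3228 in all, were curated from the Consortium for Functional Glycomics database and kept only where the protein sequence was available.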
# [2] = molecular target: Fuc(a1-2)[GalNAc(a1-3)]Gal(b1-3)GalNAc(a1-3)[Fuc(a1-2)]Gal(b1-4)GlcNAc
# How it was run: as §1
# [3] = molecular target: Fuc(a1-2)[GalNAc(a1-3)]Gal(b1-3)GalNAc(b1-3)Gal(a1-4)Gal(b1-4)Glc
# How it was run: as §1
# [4] = molecular target: Fuc(a1-2)[GalNAc(a1-3)]Gal(b1-3)GlcNAc
# How it was run: as §1
# [5] = molecular target: Fuc(a1-2)[GalNAc(a1-3)]Gal(b1-3)GlcNAc(b1-2)Man(a1-3)[Fuc(a1-2)[GalNAc(a1-3)]Gal(b1-3)GlcNAc(b1-2)Man(a1-6)]Man(b1-4)GlcNAc(b1-4)GlcNAc
# How it was run: as §1
# [6] = molecular target: Fuc(a1-2)[GalNAc(a1-3)]Gal(b1-3)GlcNAc(b1-2)Man(a1-3)[Fuc(a1-2)[GalNAc(a1-3)]Gal(b1-3)GlcNAc(b1-2)Man(a1-6)]Man(b1-4)GlcNAc(b1-4)[Fuc(a1-6)]GlcNAc
# How it was run: as §1
# [7] = molecular target: Fuc(a1-2)[GalNAc(a1-3)]Gal(b1-3)GlcNAc(b1-3)GalNAc
# How it was run: as §1
# [8] = molecular target: Fuc(a1-2)[GalNAc(a1-3)]Gal(b1-3)GlcNAc(b1-6)GalNAc
# How it was run: as §1
# [9] = molecular target: Fuc(a1-2)[GalNAc(a1-3)]Gal(b1-4)Glc
# How it was run: as §1
# [10] = molecular target: Fuc(a1-2)[GalNAc(a1-3)]Gal(b1-4)GlcNAc
# How it was run: as §1
# [11] = molecular target: Fuc(a1-2)[GalNAc(a1-3)]Gal(b1-4)GlcNAc(b1-2)Man
# How it was run: as §1
# [12] = molecular target: Fuc(a1-2)[GalNAc(a1-3)]Gal(b1-4)GlcNAc(b1-2)Man(a1-3)[Fuc(a1-2)[GalNAc(a1-3)]Gal(b1-4)GlcNAc(b1-2)Man(a1-6)]Man(b1-4)GlcNAc(b1-4)GlcNAc
# How it was run: as §1
# [13] = molecular target: Fuc(a1-2)[GalNAc(a1-3)]Gal(b1-4)GlcNAc(b1-2)Man(a1-3)[Fuc(a1-2)[GalNAc(a1-3)]Gal(b1-4)GlcNAc(b1-2)Man(a1-6)]Man(b1-4)GlcNAc(b1-4)[Fuc(a1-6)]GlcNAc
# How it was run: as §1
# [14] = molecular target: Fuc(a1-2)[GalNAc(a1-3)]Gal(b1-4)GlcNAc(b1-3)Gal(b1-4)GlcNAc
# How it was run: as §1
# [15] = molecular target: Fuc(a1-2)[GalNAc(a1-3)]Gal(b1-4)GlcNAc(b1-3)Gal(b1-4)GlcNAc(b1-3)Gal(b1-4)GlcNAc
# How it was run: as §1
# [16] = molecular target: Fuc(a1-2)[GalNAc(a1-3)]Gal(b1-4)GlcNAc(b1-3)GalNAc
# How it was run: as §1
# [17] = molecular target: Fuc(a1-2)[GalNAc(a1-3)]Gal(b1-4)GlcNAc(b1-3)[Fuc(a1-2)[GalNAc(a1-3)]Gal(b1-4)GlcNAc(b1-6)]GalNAc
# How it was run: as §1
# [18] = molecular target: Fuc(a1-2)[GalNAc(a1-3)]Gal(b1-4)GlcNAc(b1-6)GalNAc
# How it was run: as §1
# [19] = molecular target: Fuc(a1-2)[GalNAc(a1-3)]Gal(b1-4)[Fuc(a1-3)]GlcNAc
# How it was run: as §1
# [20] = molecular target: Fuc(a1-2)[GalNAc(a1-3)]Gal(b1-4)[Fuc(a1-3)]GlcNAc(b1-3)GalNAc
# How it was run: as §1
# [21] = molecular target: Fuc(a1-2)[GalNAc(a1-4)]Gal(b1-4)GlcNAc
# How it was run: as §1
# [22] = molecular target: Fuc(a1-2)[GalNAc(b1-3)]Gal
# How it was run: as §1
# [23] = molecular target: Fuc(a1-3)GlcNAc
# How it was run: as §1
# [24] = molecular target: Fuc(a1-3)[Gal(b1-4)]Glc6S
# How it was run: as §1
# [25] = molecular target: Fuc(a1-3)[Gal(b1-4)]GlcNAc
# How it was run: as §1
# [26] = molecular target: Fuc(a1-3)[Gal(b1-4)]GlcNAc(b1-2)Man
# How it was run: as §1
# [27] = molecular target: Fuc(a1-3)[Gal(b1-4)]GlcNAc(b1-2)Man(a1-3)[Fuc(a1-3)[Gal(b1-4)]GlcNAc(b1-2)Man(a1-6)]Man(b1-4)GlcNAc(b1-4)GlcNAc
# How it was run: as §1
# [28] = molecular target: Fuc(a1-3)[Gal(b1-4)]GlcNAc(b1-2)Man(a1-3)[Fuc(a1-3)[Gal(b1-4)]GlcNAc(b1-2)Man(a1-6)]Man(b1-4)GlcNAc(b1-4)[Fuc(a1-6)]GlcNAc
# How it was run: as §1
# [29] = molecular target: Fuc(a1-3)[Gal(b1-4)]GlcNAc(b1-3)Gal(b1-3)[Fuc(a1-4)]GlcNAc
# How it was run: as §1
# [30] = molecular target: Fuc(a1-3)[Gal(b1-4)]GlcNAc(b1-3)Gal(b1-4)[Fuc(a1-3)]GlcNAc
# How it was run: as §1
# [31] = molecular target: Fuc(a1-3)[Gal(b1-4)]GlcNAc(b1-3)Gal(b1-4)[Fuc(a1-3)]GlcNAc(b1-3)Gal(b1-4)[Fuc(a1-3)]GlcNAc
# How it was run: as §1
# [32] = molecular target: Fuc(a1-3)[Gal(b1-4)]GlcNAc(b1-3)GalNAc
# How it was run: as §1
# [33] = molecular target: Fuc(a1-3)[Gal(b1-4)]GlcNAc(b1-4)Gal(b1-4)[Fuc(a1-3)]GlcNAc
# How it was run: as §1
# [34] = molecular target: Fuc(a1-3)[Gal(b1-4)]GlcNAc(b1-4)Gal(b1-4)[Fuc(a1-3)]GlcNAc(b1-4)Gal(b1-4)[Fuc(a1-3)]GlcNAc
# How it was run: as §1
# [35] = molecular target: Fuc(a1-3)[Gal(b1-4)]GlcNAc(b1-6)GalNAc
# How it was run: as §1
# [36] = molecular target: Fuc(a1-3)[Gal(b1-4)]GlcNAc(b1-6)[Gal(b1-3)GlcNAc(b1-3)]Gal(b1-4)Glc
# How it was run: as §1
# [37] = molecular target: Fuc(a1-3)[Gal(b1-4)]GlcNAc6S
# How it was run: as §1
binder,measurement,setting,value
"MGL1 (Mus musculus), P49300 (protein) MIYENLQNSRIEEKTQEPGKAPSQSFLWRILSWTHLLLFSLGLSLLLLVVVSVIGSQNSQLRRDLGTLRATLDNTTSKIKAEFQSLDSRADSFEKGISSLKVDVEDHRQELQAGRDLSQKVTSLESTVEKREQALKTDLSDLTDHVQQLRKDLKALTCQLANLKNNGSEVACCPLHWTEHEGSCYWFSESEKSWPEADKYCRLENSHLVVVNSLEEQNFLQNRLANVVSWIGLTDQNGPWRWVDGTDFEKGFKNWAPLQPDNWFGHGLGGGEDCAHITTGGPWNDDVCQRTFRWICEMKLAKES",glycan array binding signal (z-score),[1],-0.162
same,glycan array binding signal (z-score),[2],-0.3
same,glycan array binding signal (z-score),[3],-0.695
same,glycan array binding signal (z-score),[4],-0.793
same,glycan array binding signal (z-score),[5],-0.274
same,glycan array binding signal (z-score),[6],-0.766
same,glycan array binding signal (z-score),[7],-0.617
same,glycan array binding signal (z-score),[8],-0.413
same,glycan array binding signal (z-score),[9],-0.262
same,glycan array binding signal (z-score),[10],0.264
same,glycan array binding signal (z-score),[11],-0.538
same,glycan array binding signal (z-score),[12],-0.752
same,glycan array binding signal (z-score),[13],0.108
same,glycan array binding signal (z-score),[14],-0.996
same,glycan array binding signal (z-score),[15],-0.048
same,glycan array binding signal (z-score),[16],-0.19
same,glycan array binding signal (z-score),[17],-0.336
same,glycan array binding signal (z-score),[18],0.044
same,glycan array binding signal (z-score),[19],-0.412
same,glycan array binding signal (z-score),[20],0.039
same,glycan array binding signal (z-score),[21],0.106
same,glycan array binding signal (z-score),[22],0.21
same,glycan array binding signal (z-score),[23],-0.541
same,glycan array binding signal (z-score),[24],1.19
same,glycan array binding signal (z-score),[25],5.46
same,glycan array binding signal (z-score),[26],-0.622
same,glycan array binding signal (z-score),[27],0.595
same,glycan array binding signal (z-score),[28],-0.48
same,glycan array binding signal (z-score),[29],1.2
same,glycan array binding signal (z-score),[30],3.95
same,glycan array binding signal (z-score),[31],5.1
same,glycan array binding signal (z-score),[32],0.44
same,glycan array binding signal (z-score),[33],2.3
same,glycan array binding signal (z-score),[34],9.12
same,glycan array binding signal (z-score),[35],-0.016
same,glycan array binding signal (z-score),[36],2.27
same,glycan array binding signal (z-score),[37],1.02
